In publication PMC4336329 (PLoS ONE, 2015):
The campaign covered roughly 310,000 compounds. About 14,000 (4.5%) showed an effect of 50% or more. Effects have a minus sign here. The list shows a part of the results.

biological target: human ether-à-go-go-related gene (hERG) potassium channel (human, UniProt Q12809); assay: primary screen, population patch clamp on CHO cells stably expressing hERG
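Further: peak tail current of the secondary pulse compared with the same well before compound.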

Sequence of human ether-à-go-go-related gene (hERG) potassium channel (Q12809 whole entry, looked up): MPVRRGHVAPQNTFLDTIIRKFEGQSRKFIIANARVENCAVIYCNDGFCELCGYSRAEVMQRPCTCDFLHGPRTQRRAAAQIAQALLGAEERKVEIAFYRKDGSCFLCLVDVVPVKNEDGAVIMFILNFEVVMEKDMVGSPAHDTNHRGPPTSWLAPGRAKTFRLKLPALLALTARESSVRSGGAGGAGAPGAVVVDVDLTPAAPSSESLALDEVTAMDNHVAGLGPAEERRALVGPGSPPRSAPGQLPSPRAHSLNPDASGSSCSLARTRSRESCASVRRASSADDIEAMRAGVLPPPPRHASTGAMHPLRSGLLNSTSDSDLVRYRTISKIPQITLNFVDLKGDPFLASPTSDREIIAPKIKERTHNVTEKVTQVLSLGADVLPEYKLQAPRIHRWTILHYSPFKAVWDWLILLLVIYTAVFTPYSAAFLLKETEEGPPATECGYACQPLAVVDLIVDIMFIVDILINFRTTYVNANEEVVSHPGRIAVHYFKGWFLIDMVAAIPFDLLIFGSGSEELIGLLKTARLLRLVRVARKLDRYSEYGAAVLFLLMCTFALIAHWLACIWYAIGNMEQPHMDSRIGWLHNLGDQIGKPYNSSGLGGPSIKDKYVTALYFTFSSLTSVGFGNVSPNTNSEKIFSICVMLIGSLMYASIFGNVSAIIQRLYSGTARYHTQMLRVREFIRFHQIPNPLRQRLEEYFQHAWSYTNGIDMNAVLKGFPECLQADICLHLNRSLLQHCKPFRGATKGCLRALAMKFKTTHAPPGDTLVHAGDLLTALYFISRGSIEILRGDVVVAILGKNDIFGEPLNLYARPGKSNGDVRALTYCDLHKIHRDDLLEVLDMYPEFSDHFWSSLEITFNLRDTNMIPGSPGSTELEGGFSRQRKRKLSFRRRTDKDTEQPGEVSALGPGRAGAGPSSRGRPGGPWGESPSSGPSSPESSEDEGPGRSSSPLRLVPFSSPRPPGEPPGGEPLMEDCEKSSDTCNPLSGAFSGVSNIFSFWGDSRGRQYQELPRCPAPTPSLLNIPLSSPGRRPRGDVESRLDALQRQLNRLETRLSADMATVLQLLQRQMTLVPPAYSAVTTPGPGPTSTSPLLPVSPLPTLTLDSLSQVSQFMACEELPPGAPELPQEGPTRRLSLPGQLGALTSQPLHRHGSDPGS

Row | Compound | hERG current change (%, negative = inhibition) at 10uM [%]
1 | Cn1c(=O)c2[nH]c(CN3CCN(Cc4ccccc4)CC3)nc2n(C)c1=O | -6.12
2 | Cc1cc(NC(=O)c2ccccc2)sc1C | 5.55
3 | Fc1cccc(Cl)c1CSC1=NCCS1 | 4.97
4 | COc1ccccc1C(=O)COC(=O)c1nc2nc(C)cc(C)n2n1 | 13.9
5 | CCOC(=O)C1(CCc2ccccc2)CCN(Cc2cccc3nccnc23)CC1 | -60.5
6 | COc1ccccc1C(=O)NNC(=O)CCCN1C(=O)/C(=C/c2cccs2)SC1=S | 14.6
7 | CCC(C(=O)O)n1nnc(-c2ccc(-c3ccc(OC)cc3)cc2)n1 (stereo not drawn) | 12
8 | O=C(COC(=O)Cc1ccsc1)Nc1ccc(F)cc1Cl | 9.43
9 | COc1ccc(CCN(C)C(=O)C2CCCN(Cc3ccc(OC)c(OC)c3)C2)cc1OC (stereo not drawn) | 9.21
10 | CC1(C)CC(=O)C(C=NCc2cccnc2)=C(O)C1 | -7.87
11 | Nc1nc[nH]c(=O)c1N=Cc1ccccc1 | 25.3
12 | COc1ccc(C)cc1NC(=O)C(=O)N/N=C(\C)CC(=O)Nc1cccnc1 | 2.77
13 | Cc1cc(C)cc(C(=O)N2CCCCCC2)c1 | -0.852
14 | O=C(C1CCC(=O)N1Cc1ccccc1Cl)N1CCN(c2ccc(F)cc2)CC1 (stereo not drawn) | -44.9
15 | COc1ccc(CNS(=O)(=O)CCNC(=O)c2ccccc2)cc1 | -4.36
16 | c1ccc(-c2cc(N3CCCCC3)ncn2)cc1 | -9.9
17 | O=C(NC1C2CCCC1CN(C1CC1)C2)c1ccc(Cl)cc1 (stereo not drawn) | 5.81
18 | Cc1cc(C)c2sc(N(CCCN(C)C)C(=O)c3ccc(S(=O)(=O)N4CCc5ccccc5C4)cc3)nc2c1.Cl | 4.44
19 | O=C(c1ccc(S(=O)(=O)Nc2ccccc2)cc1)N1CCCC1 | 11.4
20 | COc1ccc(NC(=O)Cc2c(SC)c3ccccc3n2Cc2ccccc2)cc1 | 12.6
21 | Cc1ccc(CN2C(=O)CN=C(c3ccccc3)c3ccccc32)cc1 | -4.94
22 | Cc1nn(-c2ccccc2)c2nc(N)c(C#N)c(-c3ccc(C(C)(C)C)cc3)c12 | 16.7
23 | CC(C)C(NC(N)=O)C(=O)NC1CCCCC1 (stereo not drawn) | 17.6

Row | Compound | hERG current change (%, negative = inhibition) at 10uM [%]
24 | Cc1cc(C)c2cc(C#N)c(NCCOC(=O)c3ccccc3C)nc2c1 | -54.8
25 | C/C(=N\NC(=O)C(=O)Nc1c(C)n(C)n(-c2ccccc2)c1=O)c1ccc(Cl)s1 | -4.11
26 | O=C(O)c1ccc(N2CCN(Cc3ccc4c(c3)OCO4)CC2)c([N+](=O)[O-])c1 | 17.3
27 | Cc1ccccc1NC(=O)NNC(=O)c1ccc2ccccc2c1O | 16.4
28 | O=[N+]([O-])c1cccc(NC(=S)N2CCc3ccccc3C2)c1 | 12.1
29 | Cc1ccc(C(=O)/C=C/c2cn(CN3CCN(C)CC3)c3ccccc23)cc1 | 1.42
30 | Cc1cc(NC(=O)c2cc3n(n2)C(C(F)(F)F)CC(c2ccc(Cl)c(Cl)c2)N3)no1 (stereo not drawn) | 2.64
31 | CCOC(=O)C(C)Oc1ccc2c(C)cc(=O)oc2c1C(C)=O (stereo not drawn) | -13.8
32 | CCCCNc1cc(C)nc(NCc2ccccc2)n1 | -59
33 | COc1ccccc1C(=O)Nc1nnc(CCc2ccccc2)s1 | 7.22
34 | COc1cc(CN2CC(=O)N(c3ccc(C)c(C)c3)C2=S)cc(OC)c1OC | 0.456
35 | O=C(c1ccc(S(=O)(=O)N2CCOCC2)cc1)N1CCN(c2ccccn2)CC1 | 4.62
36 | Cc1nn(C)c(NC(=O)c2ccc(Cl)cc2Cl)c1Br | -11.4
37 | Cc1ccc(C(=O)NCC(=O)NC23CC4CC(CC(C4)C2)C3)cc1 | 14.3
38 | COCCNC(=O)/C(C#N)=C/c1ccc(O)cc1 | 10.6
39 | CN1CCN(C(=O)c2cc([N+](=O)[O-])cc([N+](=O)[O-])c2)CC1 | 16.7
40 | COc1ccc(-n2nc(C(=O)NCC(=O)NCc3ccco3)c3ccccc3c2=O)cc1 | -9.11
41 | Cc1cccc(/C=N/NC(=O)Cc2ccc(Cl)cc2)c1O | 18.6
42 | Cc1c(/C(O)=C2\C(=O)C(=O)N(CCN(C)C)C2c2ccco2)cnn1-c1ccccc1 (stereo not drawn) | -0.172
43 | Cc1nc(N(C)Cc2ccccc2)c2c(C)c(C)sc2n1 | -14.8
44 | COc1ccc(-n2nc(C(=O)NCC(=O)NCCCN3CCC(C)CC3)c3ccccc3c2=O)cc1Cl | -74.2
45 | COc1ccc(NC(C)=O)cc1S(=O)(=O)N1CCN(C(=O)c2ccccc2F)CC1 | -7.16
46 | O=C(/C=C/c1ccccc1)N1CCN(c2ccccn2)CC1 | -42.8

Row | Compound | hERG current change (%, negative = inhibition) at 10uM [%]
47 | COc1ccc(C(=O)COC(=O)c2ccc(-n3cnnn3)cc2)c(OC)c1 | 5.26
48 | CCOC(=O)C(C)/C(C)=N/NC(N)=S (stereo not drawn) | 14.4
49 | Cc1ccc(S(=O)(=O)Nc2cc3c4c(c2)CC(=O)N4CCC3)cc1 | -20
50 | O=C(c1ccccc1)c1ccc2c(c1)OCCCO2 | -5.56
51 | Nc1nc(Cl)cc(NCCc2ccc(O)cc2)n1 | 9.4
52 | CC(C)COC(=O)C(C#N)c1nc2ccccc2nc1N1CCN(Cc2ccc3c(c2)OCO3)CC1 (stereo not drawn) | -6.51
53 | O=C(NNC1=C(C(=O)C(F)(F)F)CCC1)c1ccc(Cl)cc1 | 12.7
54 | COC(=O)c1cc(S(=O)(=O)Nc2cccc(S(N)(=O)=O)c2)oc1C | 17.4
55 | Cc1ccc(NC(=O)NN2CCOCC2)cc1 | 15
56 | NC(=S)Cc1ccc(Cl)cc1Cl | 18.8
57 | COc1ccc(S(=O)(=O)N(C)CC(=O)NCCCn2ccnc2)cc1Cl | 0.299
58 | COC(=O)c1cc2nc(-c3ccccc3)cc(C)n2n1 | -4.83
59 | CCOC(=O)c1c(CN2CCC(C)CC2)n(C)c2cc(Br)c(OC)cc12 | 10.5
60 | CCOC(=O)C(NC(=O)c1ccccc1F)(Nc1cc(C)on1)C(F)(F)F (stereo not drawn) | 12.8
61 | CC1(OC(=O)CCc2ccccc2)C(=O)C=C2C=C(C3CC3)OC=C2C1=O (stereo not drawn) | 1.57
62 | Cc1cc(Cl)ccc1OCCCC(N)=O | 2.71
63 | O=C(Nc1cccc(S(=O)(=O)N2CCCC2)c1)c1ccc2c(c1)OCO2 | -0.147
64 | Cc1nnc(SCc2ccc(Cl)cc2Cl)[nH]c1=O | 0.462
65 | O=C(Nc1ccc([N+](=O)[O-])cc1Cl)c1cc(Cl)ccc1O | 7.32
66 | COc1ccc(S(=O)(=O)Nc2cc(C)c(O)c(S(=O)(=O)c3ccccc3)c2)cc1 | -16.3
67 | Cc1ccc(O)c(-c2cc(C(=O)Nc3c(C)n(C)n(-c4ccccc4)c3=O)[nH]n2)c1 | 8.4
68 | CC(=O)NCC(=O)N1CCCC(C(=O)c2ccc(Oc3ccccc3)cc2)C1 (stereo not drawn) | -23.2
69 | CCOC(=O)c1c(NC(=O)CSc2nnc(-c3c[nH]c4ccccc34)n2C)sc2c1CCCC2 | 3.93

Row | Compound | hERG current change (%, negative = inhibition) at 10uM [%]
70 | CC(C)CCn1nnnc1CN1CCN(c2ccccc2)CC1 | -1.04
71 | O=C(CSc1nc(-c2ccccc2)nc2c1Cc1ccccc1O2)Nc1ccccc1 | -0.581
72 | O=S(=O)(c1ccccc1)N1CCC(O)(CSc2ccc(Cl)cc2)CC1 | 8.28
73 | CCCCC(=O)NC(=S)NNC(=O)CC#N | 8.08
74 | CCNc1nc(NCC)nc(C(=O)Nc2ccccc2)n1 | -31.1
75 | CCOC1CCc2c(C)nc(N)nc2S1 (stereo not drawn) | 17.5
76 | CC1CCN(C(C)C(=O)Nc2ccccc2-c2ccccc2)CC1.O=C(O)C(=O)O (stereo not drawn) | -15.4
77 | O=[N+]([O-])c1cc(/C=N/N2CCN(C3c4ccccc4-c4ccccc43)CC2)ccc1Cl | 0.86
78 | CN(C)c1ccc(C(CNS(=O)(=O)c2ccc3ccccc3c2)c2c[nH]c3ccccc23)cc1 (stereo not drawn) | 18
79 | CC(=O)C1=C(C)NC(SCC(N)=O)=C(C#N)C1C (stereo not drawn) | 8.65
80 | CCCc1cc(=O)oc2c(C)c(OCC(=O)N3CCC(C(=O)O)CC3)ccc12 | 14.5
81 | CC(=O)Nc1ccccc1NC(=O)C/C(C)=N/NC(=O)C(=O)Nc1cccc(Cl)c1C | 0.355
82 | COc1c(/C=N/NC(=O)c2ccccc2O)c(CCN(C)C(C)=O)cc2c1OCO2 | -3.64
83 | C=C1SC(=Nc2c(C)cc(C)cc2C)N(C(=O)c2sc3ccccc3c2Cl)C12CCCCC2 | 33.1
84 | COc1ccc(NC(=O)C(=O)NCCCn2ccnc2)cc1 | 0.989
85 | CCOC(=O)c1csc(-c2ccc3c(c2)CCO3)n1 | -3.16
86 | Cc1cccc(-n2cnc3cc(C(=O)N4CCCCC4)ccc32)c1 | -21.3
87 | CC(OC(=O)C1=NN(c2ccccc2)C(=O)CC1)C(=O)NC1CCCCC1C (stereo not drawn) | 1.73
88 | N#Cc1cnn2ccn(C3OC(CO)C(O)C3O)c12 (stereo not drawn) | 2.13
89 | CC(C)COC(=O)N1CC(O)CC1C(=O)O (stereo not drawn) | 25.3
90 | COc1ccc(CCC(=O)NNC(=S)NCc2ccc(F)cc2)cc1 | 15.2
